In US20140271646A1 (UNITED STATES OF AMERICA AS REPRESENTED BY THE SECRETARY …, published 2014):

Key:
human IGF-II = target: T1, human IGF-II (human, UniProt P01344 part only); assay: ELISA, hIGF-II coated on the plate
T1 construct: mature; It was biotinylated for the flow cytometry assays; also called hIGF-II; insulin-like growth factor II
Method: (§1) The half-maximal binding (EC₅₀) was calculated by fitting the data to the Langmuir adsorption isotherm.
(§2) ELISA was performed as described previously (Chen et al., 2008, supra). Bound Fabs and eAds were detected by HRP-conjugated mouse anti-FLAG tag antibody. The antibody-Fc fusion proteins binding to IGF-II directly coated on 96-well plates were detected by HRP-conjugated goat anti-human IgG (Fc-specific) antibody. […] The half-maximal binding (EC₅₀) was calculated by fitting the data to the Langmuir adsorption isotherm.

human insulin = human insulin (human, UniProt P01308 part only; P01308 part only, limits assumed); assay: ELISA, antigen coated on the plate
Method: as §1, §2

Sequence of human IGF-II (P01344 25-91): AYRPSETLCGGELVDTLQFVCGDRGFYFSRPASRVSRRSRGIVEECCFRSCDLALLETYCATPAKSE
Sequence of human insulin (P01308 25-54 limits assumed, chain 1 of 2): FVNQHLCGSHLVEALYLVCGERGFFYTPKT
Sequence of human insulin (P01308 90-110 limits assumed, chain 2 of 2): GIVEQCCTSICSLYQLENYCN

B1: m630.3Fc (Fc fusion)
chain: QVQLVQSGGGLVQPGGSLRLSCAASSFDFDYYEMSWVRQAPGQRLEWVAYISKSGGTKMYADSVKGRFTISRDNSKNTLYLQMNTLRAEDTAMYYCAKDRATCRGGRCYSFYYGMDVWGQGTLVTVSSGP[letters of human IgG1 Fc left out]
notes: eAd m630.3 joined to the N terminus of human IgG1 Fc through a hinge linker; It was cloned into pSecTagB-Fc and produced in 293 free style cells; also called eAd-Fc (m630.3Fc)
For B1, the EC50 (human IGF-II) was 600 pM, the “fold lower EC50 than IgG1 m610.27” value (human IGF-II) was ~6 fold and the binding result (human insulin) was “no binding”.
